Reference: patent publication US20250340636A1, “ANTIBODIES TARGETING L1CAM AND USES THEREOF” (MEMORIAL SLOAN-KETTERING CANCER CENTER, priority 2023, published 2025)

Tests used:
mouse L1CAM = mouse L1CAM (Mus musculus, UniProt P11627); experiment: BLI binding to mouse L1CAM
Protocol: Cross-reactivity to Mouse L1CAM. Affinity to mouse L1CAM was measured by BLI using an Octet Red96e instrument. […] The data was prepared by reference well subtraction, and response curves were globally fit to a 1:1 Langmuir binding model.

[1] = biological target: T1, HEK293FT cells transiently transfected with mouse L1CAM (Mus musculus, UniProt P11627); experiment: Flow cytometry binding to HEK293FT cells transiently transfected with mouse L1CAM
T1 construct: expressed in transfected cells; host or cells: HEK293FT (transient)
T1 sequence (P11627 20-1260): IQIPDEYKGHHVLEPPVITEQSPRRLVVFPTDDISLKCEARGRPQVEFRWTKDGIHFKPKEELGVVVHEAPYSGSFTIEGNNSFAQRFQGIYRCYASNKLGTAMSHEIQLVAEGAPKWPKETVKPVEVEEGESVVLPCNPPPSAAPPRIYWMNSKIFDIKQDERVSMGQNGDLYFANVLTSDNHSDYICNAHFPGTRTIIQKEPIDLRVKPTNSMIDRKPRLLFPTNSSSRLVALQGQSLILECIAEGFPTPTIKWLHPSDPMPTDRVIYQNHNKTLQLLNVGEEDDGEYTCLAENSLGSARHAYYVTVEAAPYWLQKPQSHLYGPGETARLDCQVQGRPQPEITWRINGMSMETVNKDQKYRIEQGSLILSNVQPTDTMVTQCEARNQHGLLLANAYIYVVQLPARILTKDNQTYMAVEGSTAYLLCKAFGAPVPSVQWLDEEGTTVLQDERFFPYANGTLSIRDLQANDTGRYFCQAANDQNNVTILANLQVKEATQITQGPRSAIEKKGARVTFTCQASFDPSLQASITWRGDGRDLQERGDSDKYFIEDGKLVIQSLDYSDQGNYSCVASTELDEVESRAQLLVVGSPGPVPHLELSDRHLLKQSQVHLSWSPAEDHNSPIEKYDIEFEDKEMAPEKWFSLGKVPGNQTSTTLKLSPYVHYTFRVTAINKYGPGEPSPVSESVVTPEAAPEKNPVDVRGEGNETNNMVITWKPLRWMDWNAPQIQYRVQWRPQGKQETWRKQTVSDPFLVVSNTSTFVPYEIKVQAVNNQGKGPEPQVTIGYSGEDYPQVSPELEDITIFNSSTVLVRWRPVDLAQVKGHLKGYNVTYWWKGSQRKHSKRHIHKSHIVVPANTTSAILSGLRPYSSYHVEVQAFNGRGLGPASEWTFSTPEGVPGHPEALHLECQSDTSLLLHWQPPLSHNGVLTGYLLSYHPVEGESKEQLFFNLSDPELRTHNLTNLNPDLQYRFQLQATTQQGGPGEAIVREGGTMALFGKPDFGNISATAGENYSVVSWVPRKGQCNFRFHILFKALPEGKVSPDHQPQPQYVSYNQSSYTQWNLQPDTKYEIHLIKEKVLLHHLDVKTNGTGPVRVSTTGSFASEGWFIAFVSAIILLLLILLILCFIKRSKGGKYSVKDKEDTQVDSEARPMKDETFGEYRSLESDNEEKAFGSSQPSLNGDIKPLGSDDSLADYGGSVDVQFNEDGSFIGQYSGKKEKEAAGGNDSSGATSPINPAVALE
Protocol: (§1) Hybridoma Screening. Binding to human L1CAM protein was tested by ELISA and to a HEK293T cell line overexpressing human L1CAM by flow cytometry. […] Cross-reactivity to cynomolgus L1CAM was not assessed at this point, as it is >99% homologous to human L1CAM. […] The antibodies were tested for binding to MDA-MB-231 cells, a breast cancer cell line that endogenously expresses L1CAM, followed by analysis of their internalization efficacy in MDA-MB-231 cells.
(§2) Binding Analysis. […] Dissociation constants (KD) for binding to soluble human and cynomolgus monkey L1CAM-His were determined using biolayer interferometry (BLI). In addition, EC50 values for binding to cell-bound L1CAM were established by flow cytometry using HEK293T/FT cells overexpressing human or mouse L1CAM, MCF-7 cells, and MDA-MB-231 cells. In addition, the epitope regions of the mAbs were determined by BLI interaction analysis with L1CAM subdomains (Ig and FN) expressed individually, and by a BLI competition experiment to identify epitope bins.
The binding curves for each antibody and cell line normalized to secondary antibody only staining (MFI ratio) are shown in FIGS. 14A-14C. EC50 values were determined by non-linear regression (Table 70). […] It is possible that differences in the conformation and oligomerization of L1CAM, depending on the surface expression level, contributed to the binding pattern. […]

[2] = system: MDA-MB-231-LM2 cells, lung metastases; experiment: MDA-MB-231-LM2 lung metastasis; format: in vivo; settings: MDA-MB-231 tail vein injection model, mouse
Description: MDA-MB-231-LM2 breast cancer cells were introduced via tail vein injection into athymic mice to generate lung metastasis. […] FIGS. 27A and 27B show tumor growth monitored on a weekly basis.
MDA-MB-231-LM2 Lung Metastasis. To assess the efficacy of the L1CAM ADCs in the context of an intact tumor microenvironment, 5×10^4 MDA-MB-231-LM2 cells were introduced via tail vein injection into athymic mice to generate orthotopic lung metastases.

[3] = biological target: T2, MDA-MB-231 cells (endogenous L1CAM) (Homo sapiens, UniProt P32004); experiment: Flow cytometry binding to MDA-MB-231 cells
T2 construct: MDA-MB-231 cells, a breast cancer cell line that endogenously expresses L1CAM; endogenous in cells; host or cells: MDA-MB-231
T2 sequence (P32004 20-1257): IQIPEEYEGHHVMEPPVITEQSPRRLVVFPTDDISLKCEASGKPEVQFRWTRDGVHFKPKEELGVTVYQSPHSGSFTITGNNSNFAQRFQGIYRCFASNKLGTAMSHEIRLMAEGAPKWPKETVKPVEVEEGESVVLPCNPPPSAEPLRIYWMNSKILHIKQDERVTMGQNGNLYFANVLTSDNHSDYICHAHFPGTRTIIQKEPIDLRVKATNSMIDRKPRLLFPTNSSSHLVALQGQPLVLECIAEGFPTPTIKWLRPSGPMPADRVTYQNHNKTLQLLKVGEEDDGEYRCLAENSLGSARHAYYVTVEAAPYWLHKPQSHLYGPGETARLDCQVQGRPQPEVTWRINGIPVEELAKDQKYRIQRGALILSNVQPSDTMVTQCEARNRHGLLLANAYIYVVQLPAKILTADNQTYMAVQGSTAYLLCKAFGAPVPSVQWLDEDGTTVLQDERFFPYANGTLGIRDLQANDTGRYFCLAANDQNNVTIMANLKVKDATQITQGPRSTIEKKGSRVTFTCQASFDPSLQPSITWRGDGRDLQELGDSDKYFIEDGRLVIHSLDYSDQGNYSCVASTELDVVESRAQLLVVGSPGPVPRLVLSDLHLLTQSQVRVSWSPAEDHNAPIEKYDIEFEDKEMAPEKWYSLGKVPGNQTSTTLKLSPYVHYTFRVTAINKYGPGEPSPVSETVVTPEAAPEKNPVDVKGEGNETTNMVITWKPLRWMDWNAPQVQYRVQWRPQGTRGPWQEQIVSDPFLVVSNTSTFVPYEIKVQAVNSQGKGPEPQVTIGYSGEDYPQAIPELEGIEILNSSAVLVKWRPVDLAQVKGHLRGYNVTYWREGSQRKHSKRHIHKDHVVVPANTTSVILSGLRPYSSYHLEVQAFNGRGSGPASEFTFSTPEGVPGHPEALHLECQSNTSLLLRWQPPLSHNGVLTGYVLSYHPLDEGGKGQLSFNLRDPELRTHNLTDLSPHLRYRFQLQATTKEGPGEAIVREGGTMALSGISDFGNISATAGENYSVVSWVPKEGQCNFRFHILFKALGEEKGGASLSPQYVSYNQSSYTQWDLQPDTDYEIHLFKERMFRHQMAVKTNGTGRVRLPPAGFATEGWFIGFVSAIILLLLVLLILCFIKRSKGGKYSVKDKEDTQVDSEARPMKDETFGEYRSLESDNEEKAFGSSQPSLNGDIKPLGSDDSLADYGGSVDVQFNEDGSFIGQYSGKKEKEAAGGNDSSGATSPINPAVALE
Protocol: as §1
as §2, with “In addition, EC50 values for binding to cell-bound L1CAM were established by flow cytometry using HEK293T/FT cells overexpressing human or mouse L1CAM, MCF-7 cells, and MDA-MB-231 cells.” left out
Briefly, CDR-grafted heavy and light chains were expressed in various combinations and the antigen-binding properties were evaluated. Dissociation constant (KD) of various humanized antibodies was determined by biolayer interferometry (BLI) (FIG. 8). Further, binding to 293 FT cells and MDA-MB-231 cells expressing L1CAM was detected by FACS analysis (FIG. 9).
Binding to L1CAM on Cells. […] After washing, the stained cells were analyzed by flow cytometry.

Sequence of mouse L1CAM (P11627 20-1260): as the sequence (P11627 20-1260) above

B1: TDI-Y-004 (antibody)
heavy: QVQLVQSGAEVKKPGSSVKVSCKASGYTFTNYYIHWVRQAPGQGLEWMGKIGPGSGSPYYQGMFKDRVTITADESTSTAYMELSSLRSEDTAVYYCARWLLPFDYWGQGTLVTVSS[human IgG1 constant region not printed]
light: EIVLTQSPGTLSLSPGERATLSCRASSSVNYMHWYQQKPGQAPRLLIYATSILASGIPDRFSGSGSGTDYTLTISRLEPEDFAVYYCQQFSSDPLTFGGGTKVEIKRTVAAPSVFIFPPSDEQLKSGTASVVCLLNNFYPREAKVQWKVDNALQSGNSQESVTEQDSKDSTYSLSSTLTLSKADYEKHKVYACEVTHQGLSSPVTKSFNRGEC
- dissociation constant (KD), mouse L1CAM (mouse L1CAM; BLI Octet Red96e, Ni-NTA biosensors, 1:1 Langmuir fit): No binding
- KD (mouse L1CAM; BLI, soluble mouse L1CAM (monomer)): No binding
- Cross-reactivity to mouse LICAM on cells (HEK293T): EC50 [1]: No binding
- Tumor control ([2]; ADC with cleavable linker): >85% tumor control
- Survival ([2]; ADC with non-cleavable linker): 100% survival
- Tumor control ([2]; ADC with non-cleavable linker): > 99%
- Tumor recurrence, days after last dose ([2]; ADC with non-cleavable linker): No tumor recurrence up to 48
- Tumor regression ([2]; ADC with non-cleavable linker): complete
- EC50 for binding to cells [3]: single-digit nM range

B2: TDI-Y-005 (antibody)
heavy: EVQMVESGGGLVQPGGSLRLSCAAPGFIFSSYNMNWVRQAPGKGLEWVSYISSSSSTTYYADSVKGRFTISRDNAKNSLYLQMNSLRDEDTAVYYCASLYSGYDYYYYYGMDVWGQGTTVTVSS[human IgG1 constant region not printed]
light: DIVMTQTPLSSPVSLGQPASISCRSSQSLVHSDGNTYLSWLQQRPGQPPRVLIYKISKRFSGVPDRFSGSGAGTDFTLKISRVEAEDVGVYYCMQATQFPFTFGPGTKVDIKRTVAAPSVFIFPPSDEQLKSGTASVVCLLNNFYPREAKVQWKVDNALQSGNSQESVTEQDSKDSTYSLSSTLTLSKADYEKHKVYACEVTHQGLSSPVTKSFNRGEC
- Tumor control ([2]; ADC with cleavable linker): >85% tumor control
- Survival ([2]; ADC with non-cleavable linker): 100% survival
- Tumor control ([2]; ADC with non-cleavable linker): >99% tumor control,
- Tumor recurrence, days after last dose ([2]; ADC with non-cleavable linker): No tumor recurrence up to 48 days
- Tumor regression ([2]; ADC with non-cleavable linker): complete regression
- EC50 for binding to cells [3]: single-digit nM range
